The results in this text go back to the supplement of paper PMC12217912.

Some of the results follow. The full chains were built here from the parent and the listed change. Inactive controls read about 0.05.

The chains are these.
B1: TEV protease; numbered along this chain (parent)
chain: MGESLFKGPRDYNPISSSICHLTNESDGHTTSLYGIGFGPFIITNKHLFRRNNGTLVVQSLHGVFKVKDTTTLQQHLVDGRDMIIIRMPKDFPPFPQKLKFREPQREERICLVTTNFQTKSMSSMVSDTSCTFPSGDGIFWKHWIQTKDGQCGSPLVSTRDGFIVGIHSASNFTNTNNYFTSVPKNFMELLTNQEAQQWVSGWRLNADSVLWGGHKVFMVKPEEPFQPVKEATQL

The variants in this assay derive from B1. The assay is described as follows: raw area under fraction-flipped curve 0-4 h after induction (AUC4h, not background-subtracted), DNA-recorder readout of cleavage of the substrate (dimensionless); higher = more cleavage of the substrate by the protease variant. The settings on record: temperature: 34 °C; time window: 0-4 h after rhamnose induction.
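Further: Bxb1 expression induced with 0.2% (w/v) L-rhamnose at OD600 near 0.5, cultures sampled hourly, flipped fraction per protease–substrate barcode pair counted by paired-end Illumina sequencing.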

On to MGESLFKGPRDYNPISSSICHLTNESDGHTTSLYGIGFGPFIITNKHLFRRNNGTLVVQSLHGVFIVKDTTTLQQHLVDGRDMIIIRMPKDFPPFPQKLKFREPQREERICLVTTNFQTKSMSSMVSDTSCTFPSGDGIFWKHWIQTKDGQCGSPLVSTRDGFIVGIHSASNFTNTNNYFTSVPKNFMELLTNQEAQQWVSGWRLNADSVLWGGHKVFMVKPEEPFQPVKEATQL [K66I], for which the “area with substrate ENLYFQC” value came to 0.145, the “area with substrate ENLYFQS” value is 0.109, the “area with substrate ENLYFQV” value was determined as 0.0568 and the “area with substrate ENLYFQW” value is 0.0897. Moreover, the “area with substrate ENLYFQY” value is 0.0795.
Regarding MGESLFKGPRDYNPISSSICHLTNESDGHTTSLYGIGFGPFIITNKHLFRRNNGTLVVQSLHGVFKVKDTTTLQQHLVDGRDMIIIRMPKDFPPFPQKLKFREPQREERICLVTTNFQTQSMSSMVSDTSCTFPSGDGIFWKHWIQTKDGQCGSPLVSTRDGFIVGIHSASNFTNTNNYFTSVPKNFMELLTNQEAQQWVSGWRLNADSVLWGGHKVFMVKPEEPFQPVKEATQL [K120Q], the “area with substrate ENLYFQC” value was 0.128, the “area with substrate ENLYFQG” value turned out to be 0.0927, the “area with substrate ENLYFQI” value stood at 0.0581 and the “area with substrate ENLYFQL” value stood at 0.0695. The “area with substrate ENLYFQM” value worked out at 0.0645, the “area with substrate ENLYFQN” value is 0.0787, the “area with substrate ENLYFQR” value came out at 0.0499 and the “area with substrate ENLYFQS” value was 0.104. Further, the “area with substrate ENLYFQT” value came out at 0.06, the “area with substrate ENLYFQV” value came out at 0.0444, the “area with substrate ENLYFQW” value stood at 0.0404 and the “area with substrate ENLYFQY” value was determined as 0.0809.
As for MGESLFKGPRDYNPISSSICHLTNESDGHTTSLYGIGFGPFIITNKHLFRRNNGTLVVQSLMGVFKVKDTTTLQQHLVDGRDMIIIRMPKDFPPFPQKLKFREPQREERICLVTTNFQTKSMSSMVSDTSCTFPSGDGIFWKHWIQTKDGQCGSPLVSTRDGFIVGIHSASNFTNTNNYFTSVPKNFMELLTNQEAQQWVSGWRLNADSVLWGGHKVFMVKPEEPFQPVKEATQL [H62M], the “area with substrate ENLYFQC” value stood at 0.0681, the “area with substrate ENLYFQQ” value is 0.0603, the “area with substrate ENLYFQR” value turned out to be 0.0683 and the “area with substrate ENLYFQS” value turned out to be 0.101. Further, the “area with substrate ENLYFQV” value was 0.0495.
For the variant MGESLFKGPRDYNPISSSICHLTNESDGHTTSLYGIGFGPFIITNKHLFRRNNGTLVVQSLHGVFKVKDTTTLQQHLVDGRDMIIIRMPKDFPPFPQKLKFREPQREERICLVTTNFQTKSMSSMVSDTSCTFPSGDGIFWKHWIQTKDGQCGSPLVSTRDGFIVGIHSASNFTNTNNYFTSVPKNFMELLTNQEAQQWVSGWWLNADSVLWGGHKVFMVKPEEPFQPVKEATQL [R204W], the “area with substrate ENLYFQC” value was determined as 0.144, the “area with substrate ENLYFQD” value came out at 0.0699, the “area with substrate ENLYFQG” value stood at 0.101 and the “area with substrate ENLYFQH” value was found to be 0.0777. For the same variant, the “area with substrate ENLYFQI” value was found to be 0.054, the “area with substrate ENLYFQK” value was 0.0744, the “area with substrate ENLYFQL” value was determined as 0.0634 and the “area with substrate ENLYFQM” value amounted to 0.115. Moreover, the “area with substrate ENLYFQN” value was determined as 0.0843, the “area with substrate ENLYFQR” value came to 0.0597, the “area with substrate ENLYFQS” value worked out at 0.111 and the “area with substrate ENLYFQT” value came out at 0.0589. The “area with substrate ENLYFQV” value stood at 0.0506, the “area with substrate ENLYFQW” value amounted to 0.06 and the “area with substrate ENLYFQY” value was found to be 0.0835.
For MGESLFKGPRDYNPISSSICHLTNESDGHTTSLYGIGFGPFIITNKHLFRRNNGTLVVQSLHGVFKVKDTTTLQQHLVDGRDMIIIRMPKDFPPFPQKLKFREPQREERICLVTTNFQTKSMSSMVSDTSCTFPSGDGIFWKHWIQTKDGQCGSPLVSTRDGFIVGIHSASNFTNTNNYFTSVPKNFMELLTNQEAQQWVSGWRLNEDSVLWGGHKVFMVKPEEPFQPVKEATQL [A207E], the “area with substrate ENLYFQC” value came out at 0.0943, the “area with substrate ENLYFQI” value stood at 0.0532, the “area with substrate ENLYFQL” value stood at 0.0618 and the “area with substrate ENLYFQM” value is 0.0698. For the same variant, the “area with substrate ENLYFQN” value worked out at 0.0729, the “area with substrate ENLYFQP” value came to 0.0634, the “area with substrate ENLYFQR” value turned out to be 0.0613 and the “area with substrate ENLYFQS” value turned out to be 0.116. Also, the “area with substrate ENLYFQT” value was 0.0718.
